From a collection of fitness landscapes (doi:10.1126/science.1257360)
Some of the results follow.

B1: PhoQ; a variant is named by its letters at X, in order, P23837 (parent)
chain: MKKLLRLFFPLSLRVRFLLATAAVVLVLSLAYGMVALIGYSVSFDKTTFRLLRGESNLFYTLAKWENNKLHVELPENIDKQSPTMTLIYDENGQLLWAQRDVPWLMKMIQPDWLKSNGFHEIEADVNDTSLLLSGDHSIQQQLQEVREDDDDAEMTHSVAVNVYPATSRMPKLTIVVVDTIPVELKSSYMVWSWFIYVLSANLLLVIPLLWVAAWWSLRPIEALAKEVRELEEHNRELLNPATTRELTSLVRNLNRLLKSERERYDKYRTTLTDLTHSLKTPLXXLQXXLRSLRSEKMSVSDAEPVMLEQISRISQQIGYYLHRASMRGGTLLSRELHPVAPLLDNLTSALNKVYQRKGVNISLDISPEISFVGEQNDFVEVMGNVLDNACKYCLEFVEISARQTDEHLYIVVEDDGPGIPLSKREVIFDRGQRVDTLRPGQGVGLAVAREITEQYEGKIVAGESMLGGARMEVIFGRQHSAPKDE

Variants of: B1
Experiment: enrichment ratio after two sorts for PhoP signalling (ratio (wild type AVST 3.29)); higher = more functional
Details: with PhoP (E. coli)

| Variant | enrichment ratio |
| --- | --- |
| QSEM | ≤ 0.25 |
| YEQS | ≤ 0.25 |
| TVVC | ≤ 0.25 |
| PHKR | ≤ 0.25 |
| IRND | ≤ 0.25 |
| LKPH | ≤ 0.25 |
| SRWY | ≤ 0.25 |
| QRIF | ≤ 0.25 |
| VFFA | ≤ 0.25 |
| MARM | ≤ 0.25 |
| QIIA | ≤ 0.25 |
| WDWY | ≤ 0.25 |
| FRQH | ≤ 0.25 |
| IFPG | ≤ 0.25 |
| LFFT | ≤ 0.25 |
| ILKT | ≤ 0.25 |
| GMHK | ≤ 0.25 |
| DQGD | ≤ 0.25 |
| MGHH | ≤ 0.25 |
| QSTK | ≤ 0.25 |
| HNYE | ≤ 0.25 |
| ISCP | ≤ 0.25 |
| QISR | ≤ 0.25 |
| HGNN | ≤ 0.25 |
| DDEY | ≤ 0.25 |
| QTWS | ≤ 0.25 |

| Variant | enrichment ratio |
| --- | --- |
| HPTI | ≤ 0.25 |
| ANEC | ≤ 0.25 |
| FQPY | ≤ 0.25 |
| RRNL | ≤ 0.25 |
| AVPQ | ≤ 0.25 |
| TPGR | ≤ 0.25 |
| YRKA | ≤ 0.25 |
| DSTY | ≤ 0.25 |
| DVCT | ≤ 0.25 |
| DENG | ≤ 0.25 |
| YGRS | 0.285 |
| QAWP | ≤ 0.25 |
| IQWW | ≤ 0.25 |
| DISQ | ≤ 0.25 |
| GYWP | ≤ 0.25 |
| MKIH | ≤ 0.25 |
| GRNR | ≤ 0.25 |
| FTFG | ≤ 0.25 |
| ADRA | ≤ 0.25 |
| HVIL | ≤ 0.25 |
| QFRM | ≤ 0.25 |
| IGWK | ≤ 0.25 |
| LEGP | ≤ 0.25 |
| FPTA | ≤ 0.25 |
| EHYN | ≤ 0.25 |
| PVIY | ≤ 0.25 |

| Variant | enrichment ratio |
| --- | --- |
| PRIN | ≤ 0.25 |
| LCRN | ≤ 0.25 |
| EERP | ≤ 0.25 |
| SNGE | 1.67 |
| AFMG | 19.5 |
| WPNL | ≤ 0.25 |
| RCKK | ≤ 0.25 |
| REHL | ≤ 0.25 |
| DRGG | ≤ 0.25 |
| AREI | ≤ 0.25 |
| WLMC | ≤ 0.25 |
| NVSL | ≤ 0.25 |
| MAPA | ≤ 0.25 |
| NPSD | ≤ 0.25 |
| TSYP | ≤ 0.25 |
| VLLM | 0.26 |
| KNNQ | ≤ 0.25 |
| NAAN | ≤ 0.25 |
| QPSY | ≤ 0.25 |
| DMTF | ≤ 0.25 |
| NRRL | ≤ 0.25 |
| RVIH | ≤ 0.25 |
| GMDY | ≤ 0.25 |
| AICT | 18 |
| QDAH | ≤ 0.25 |
| TMLP | ≤ 0.25 |

| Variant | enrichment ratio |
| --- | --- |
| GKTY | ≤ 0.25 |
| EDCG | ≤ 0.25 |
| AQLG | 18.8 |
| ARHH | ≤ 0.25 |
| PFED | ≤ 0.25 |
| FKIT | ≤ 0.25 |
| LYWP | ≤ 0.25 |
| QQSS | 1.45 |
| ILSG | ≤ 0.25 |
| VVYY | ≤ 0.25 |
| SWRK | ≤ 0.25 |
| DADG | ≤ 0.25 |
| GKEF | ≤ 0.25 |
| RGCH | ≤ 0.25 |
| MHNP | ≤ 0.25 |
| HGPQ | ≤ 0.25 |
| CLVF | ≤ 0.25 |
| FLHC | ≤ 0.25 |
| MNER | ≤ 0.25 |
| RVQD | ≤ 0.25 |
| AKAY | 13.6 |
| YHIP | ≤ 0.25 |
| PNHH | ≤ 0.25 |
| RVDF | ≤ 0.25 |
| VPML | ≤ 0.25 |
| SAIK | ≤ 0.25 |

| Variant | enrichment ratio |
| --- | --- |
| VCWQ | ≤ 0.25 |
| NNSA | ≤ 0.25 |
| VHFS | ≤ 0.25 |
| HYRN | ≤ 0.25 |
| FFQI | ≤ 0.25 |
| PRHF | ≤ 0.25 |
| MHLN | ≤ 0.25 |
| DGIR | ≤ 0.25 |
| HCVR | ≤ 0.25 |
| LGHK | ≤ 0.25 |
| GMRN | ≤ 0.25 |
| QPDY | ≤ 0.25 |
| LVWH | ≤ 0.25 |
| HQEF | ≤ 0.25 |
| GETF | ≤ 0.25 |
| MFTS | ≤ 0.25 |
| SAWG | ≤ 0.25 |
| WVKY | ≤ 0.25 |
| HHQA | ≤ 0.25 |
| AKQF | ≤ 0.25 |
| KFVW | ≤ 0.25 |
| QLFR | ≤ 0.25 |
| WGCK | ≤ 0.25 |
| TATC | 7.1 |
| HRYN | ≤ 0.25 |
| NSWW | ≤ 0.25 |

| Variant | enrichment ratio |
| --- | --- |
| AWSA | ≤ 0.25 |
| RCKW | ≤ 0.25 |
| MDDK | ≤ 0.25 |
| ENQD | ≤ 0.25 |
| WCAP | ≤ 0.25 |
| QEQI | ≤ 0.25 |
| QEPH | ≤ 0.25 |
| WSGQ | ≤ 0.25 |
| NQSH | ≤ 0.25 |
| HYYL | ≤ 0.25 |
| SFAH | ≤ 0.25 |
| KSDT | ≤ 0.25 |
| YKFF | ≤ 0.25 |
| YEAG | ≤ 0.25 |
| AWTA | ≤ 0.25 |
| FTVF | ≤ 0.25 |
| TTCR | 7.57 |
| SDMQ | 0.349 |
| SNKN | ≤ 0.25 |
| HTMV | ≤ 0.25 |
| IPMM | ≤ 0.25 |
| DPDR | ≤ 0.25 |
| TDAV | 11.6 |
